# Test results published in a collection of fitness landscapes (doi:10.1016/j.celrep.2020.107928).
# The full ranking holds about 81,000 sequences; the median of “one-hybrid fitness for binding parS DNA” is about -0.17, and the highest 2% start at about 0.51. The list shows a part of the results.
# B1: Caulobacter ParB omega fusion; a variant is named by its letters at X, in order, B8GW30 (parent)
# chain: MESVVVGEPGMSEGRRGLGRGLSALLGEVDAAPAQAPGEQLGGSREAPIEILQRNPDQPRRTFREEDLEDLSNSIREKGVLQPILVRPSPDTAGEYQIVAGERAWRAAQRAGLKTVPIMVRELDDLAVLEIGIIENVQRADLNVLEEALSYKVLMEKFERTQENIAQTIGKSXSHVANXMRLLXLPDEVQSYLVSGELTAXHARAIAAAADPVALAKQIIEGGLSVRETEALARKAPNLSAGKSKGGRPPRVKDTDTQALESDLSSVLGLDVSIDHRGSTGTLTITYATLEQLDDLCNRLTRGI
# Variants of: B1
# Test: one-hybrid fitness for binding parS DNA (scaled: cognate 1, non-cognate 0); higher = stronger binding
# Details: with parS DNA site
# Procedure, shortened: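 Selection: bacterial one-hybrid in E. coli USO, HIS3 reporter with the site 19 bp from the promoter, 48 hours at 37°C on M9-minus-histidine plus 0.1 mM IPTG and 5 mM 3-AT. Libraries were Caulobacter ParB with four randomised specificity codons, sequenced on Illumina before and after selection. Fitness is the rescaled log change in variant-to-wild-type read ratio, anchored to the cognate and non-cognate sites.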
row,Variant,one-hybrid fitness for binding parS DNA
1,IHSR,≤ 0.2
2,ACCF,≤ 0.2
3,ASEY,≤ 0.2
4,ACKN,≤ 0.2
5,AHNG,≤ 0.2
6,VPAI,≤ 0.2
7,HPVT,≤ 0.2
8,CMRM,≤ 0.2
9,DRYD,≤ 0.2
10,GEEG,≤ 0.2
11,RWFM,≤ 0.2
12,PHVG,≤ 0.2
13,PVST,≤ 0.2
14,QCSQ,≤ 0.2
15,TTAS,≤ 0.2
16,LLTP,≤ 0.2
17,GYGC,≤ 0.2
18,YLTH,≤ 0.2
19,YRAE,0.216
20,CMMR,≤ 0.2
21,EDGS,≤ 0.2
22,NPPM,≤ 0.2
23,DTKW,≤ 0.2
24,DGPR,≤ 0.2
25,RIHG,1.02

row,Variant,one-hybrid fitness for binding parS DNA
1,HNDT,≤ 0.2
2,NSWA,≤ 0.2
3,DPVV,≤ 0.2
4,LDMS,≤ 0.2
5,TKMT,≤ 0.2
6,HGTF,≤ 0.2
7,SGKH,≤ 0.2
8,SPKA,≤ 0.2
9,TTKR,≤ 0.2
10,KFPA,≤ 0.2
11,PPAM,≤ 0.2
12,PIMT,≤ 0.2
13,KMES,≤ 0.2
14,AAPN,≤ 0.2
15,KLHC,≤ 0.2
16,SSYK,≤ 0.2
17,CTVI,≤ 0.2
18,VQES,≤ 0.2
19,FHHR,≤ 0.2
20,RLVQ,≤ 0.2
21,DQLN,≤ 0.2
22,PQYY,≤ 0.2
23,NNIE,≤ 0.2
24,ATRA,≤ 0.2
25,KPAC,≤ 0.2

row,Variant,one-hybrid fitness for binding parS DNA
1,ILYR,≤ 0.2
2,KQSY,≤ 0.2
3,ARAW,≤ 0.2
4,DHWV,≤ 0.2
5,SQTN,≤ 0.2
6,RAPG,0.569
7,IPSR,≤ 0.2
8,WLEC,≤ 0.2
9,RWKP,≤ 0.2
10,RAIM,0.209
11,ALRI,≤ 0.2
12,VRKM,≤ 0.2
13,QHPL,≤ 0.2
14,GWDT,≤ 0.2
15,TQPF,≤ 0.2
16,LPGA,≤ 0.2
17,GIDG,≤ 0.2
18,NARE,≤ 0.2
19,IISR,≤ 0.2
20,ESKM,≤ 0.2
21,HISF,≤ 0.2
22,LKAR,≤ 0.2
23,MHER,≤ 0.2
24,LNMT,≤ 0.2
25,ECIE,≤ 0.2

row,Variant,one-hybrid fitness for binding parS DNA
1,KVPY,≤ 0.2
2,LISG,≤ 0.2
3,LQQM,≤ 0.2
4,FPGY,≤ 0.2
5,PRTC,≤ 0.2
6,VKTW,≤ 0.2
7,QIRK,≤ 0.2
8,PTNQ,≤ 0.2
9,KKTC,≤ 0.2
10,RQQC,0.951
11,DSPG,≤ 0.2
12,RGKS,0.927
13,LWRS,≤ 0.2
14,LAWM,≤ 0.2
15,KLCD,≤ 0.2
16,QLWC,≤ 0.2
17,PRRG,≤ 0.2
18,QLGL,≤ 0.2
19,MCCG,≤ 0.2
20,RRYD,≤ 0.2
21,SQTL,≤ 0.2
22,TFHR,≤ 0.2
23,CVLC,≤ 0.2
24,GCTR,≤ 0.2
25,PQAW,≤ 0.2

row,Variant,one-hybrid fitness for binding parS DNA
1,DVDW,≤ 0.2
2,RDLQ,≤ 0.2
3,HAYA,≤ 0.2
4,CSKT,≤ 0.2
5,NQNS,≤ 0.2
6,RHIW,≤ 0.2
7,LDST,≤ 0.2
8,RSWI,≤ 0.2
9,LPWM,≤ 0.2
10,GRPK,≤ 0.2
11,PQAR,≤ 0.2
12,CNRG,≤ 0.2
13,ARAI,≤ 0.2
14,PSVN,≤ 0.2
15,FSPF,≤ 0.2
16,RTTD,≤ 0.2
17,ECCC,≤ 0.2
18,WKKC,≤ 0.2
19,MVPN,≤ 0.2
20,AMSR,≤ 0.2
21,SDLA,≤ 0.2
22,APQC,≤ 0.2
23,RVKY,0.664
24,MFWR,≤ 0.2
25,YPYG,≤ 0.2

row,Variant,one-hybrid fitness for binding parS DNA
1,MSYL,≤ 0.2
2,ILQL,≤ 0.2
3,PRHR,≤ 0.2
4,RTEM,0.281
5,KGNQ,≤ 0.2
6,IIFS,≤ 0.2
7,QHES,≤ 0.2
8,RKDG,0.939
9,HACH,≤ 0.2
10,RNQI,≤ 0.2
11,PCLT,≤ 0.2
12,VNTS,≤ 0.2
13,WKDC,≤ 0.2
14,RIIV,≤ 0.2
15,IIVG,≤ 0.2
16,IPIE,≤ 0.2
17,AQDG,≤ 0.2
18,PYLL,≤ 0.2
19,PPID,≤ 0.2
20,GFQG,≤ 0.2
21,TQAR,≤ 0.2
22,HPVW,≤ 0.2
23,KDTM,≤ 0.2
24,RPKH,≤ 0.2
25,YRWT,≤ 0.2

row,Variant,one-hybrid fitness for binding parS DNA
1,KDLA,≤ 0.2
2,PRVY,≤ 0.2
3,QINP,≤ 0.2
4,FSIR,≤ 0.2
5,YRWG,≤ 0.2
6,TNIR,≤ 0.2
7,LKWS,≤ 0.2
8,SATD,≤ 0.2
9,MNNT,≤ 0.2
10,GAAL,≤ 0.2
11,RFLK,≤ 0.2
12,QAQY,≤ 0.2
13,RVRV,≤ 0.2
14,TRQE,≤ 0.2
15,PDMG,≤ 0.2
16,HKAY,≤ 0.2
17,RPIR,≤ 0.2
18,VFAY,≤ 0.2
19,QQEL,≤ 0.2
20,MSCR,≤ 0.2
21,TCKK,≤ 0.2
22,FQQR,≤ 0.2
23,VLGI,≤ 0.2
24,KVYS,≤ 0.2
25,QLLT,≤ 0.2

row,Variant,one-hybrid fitness for binding parS DNA
1,LHNA,≤ 0.2
2,LIME,≤ 0.2
3,ARCT,≤ 0.2
4,QFTT,≤ 0.2
5,WCAS,≤ 0.2
6,NWQG,≤ 0.2
7,RLCD,≤ 0.2
8,WKKS,≤ 0.2
9,DKKD,≤ 0.2
10,HNKT,≤ 0.2
11,HLVC,≤ 0.2
12,NAAN,≤ 0.2
13,ATKH,≤ 0.2
14,SSQV,≤ 0.2
15,QYEW,≤ 0.2
16,NMGM,≤ 0.2
17,QDFY,≤ 0.2
18,TPDN,≤ 0.2
19,VGLW,≤ 0.2
20,NMSY,≤ 0.2
